Measured values: the supplement of paper PMC11417369
± gives the standard deviation of the averaged measurements. The list shows a part of the results.

Test system: PfAP2-EXP AP2 domain (GST-tagged)
Assay: gcPBM binding intensity (ln(normalized median fluorescence intensity)); higher = stronger DNA binding
Method in brief: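 Plasmodium falciparum DNA-binding domains carrying a GST tag were expressed in E. coli and applied for 1 h, at about 25 μg on average, to an Agilent 4 × 180k array. The array held primer-extended double-stranded 36-bp intergenic genomic probes together with negative controls, and binding took place in 1× PBS with 1% milk, 0.2 mg/ml BSA, 0.5% salmon testes DNA and 0.03% Triton X-100. An Alexa488 anti-GST antibody detected bound protein, and the array was scanned at 488 nm. Binding intensity is taken as the highest Masliner-normalised natural-log median intensity across replicate spots of either probe orientation.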

Sequence | gcPBM binding intensity (ln)
CATATATATATATATTGTACAAGATTGTTTTTTTAT [XGTACX_site3913] | 8.76 ± 0.35
TCTGTGCACGCATGAAGTACAAAAAAGGTTTCCAGT [XGTACX_site5049] | 9.19 ± 0.18
TATATTTTTTTAATATGTACATATATATATAAAACA [XGTACX_site2171] | 8.57 ± 0.13
CTATATACTAAATGCACACTTATATATTTATATATA [CACACA_site2454] | 8.47 ± 0.13
TAATTTTTTTTTTTTTTTTTTTTTTTTTTTTTCCTT [CACACA_negctrl_site1095] | 7.8 ± 0.61
GGAATAATATAAAACACACACATAAATATAAATATA [CACACA_site3376] | 8.81 ± 0.35
ATGAACAAAATGTAATGTACGAATAATTATTCATAT [XGTACX_site4812] | 8.61 ± 0.3
TTTTATTCCTATTTATTTATATTTTTGTCTTATATC [CACACA_negctrl_site125] | 8.8 ± 0.43
TTAAGAATATCTACATGTACATACCAAAGAAATACA [XGTACX_site3125] | 8.78 ± 0.43
TAATTTTTATTTATAATAATATATGACATATATCCA [XGTACX_negctrl_site359] | 8.1 ± 0.35
AAAAAAAAGTTCTACACACACAAAAAAATATTTTTT [CACACA_site2309] | 8.48 ± 0.59
TATAGACAAACACATACATGCATACATACATACATA [TGCATGCA_site273] | 8.93 ± 0.35
GTGTGCTTTTTACGAGTGCAAGTATTTTGGTGGTTA [GTGCAC_site9496] | 8.98 ± 0.099
GTACACATATAATATACACACAACAAATATGCACAT [CACACA_site1010] | 8.94 ± 0.3
TTATAATAAGATTGTTGTACTTATATTCCTTCTATA [XGTACX_site3173] | 8.66 ± 0.33
AATACATATTCAAAGGTGCAAAATAAAAATATACAT [GTGCAC_site9743] | 9.49 ± 0.099
TCGTTTCATATTTATCATGAGATAATCACACGAACA [TGCATGCA_negctrl_site497] | 8.41 ± 0.22
TAGTTATAAGAGTTACAAAGAATACCGGAAATATAG [CACACA_negctrl_site1829] | 8.94 ± 0.54
TGTTTTGTATATATAGCATGCAGTAAGGGAAAAAAA [TGCATGCA_site652] | 9.84 ± 0.46
AATGTCAATTTTAATAGTACACAAATATATATATAT [XGTACX_site521] | 9.84 ± 0.34
AATGACCATTTTTAAAATTACAAATACATACAACTG [TGCATGCA_negctrl_site420] | 8.47 ± 0.34
AAGTATTATTATAAGACACACATGTATTTAAGTATA [CACACA_site4922] | 8.41 ± 0.23

Sequence | gcPBM binding intensity (ln)
AAAATATAATATAATGCACACATAAACAAAAAAAAA [CACACA_site8161] | 8.72 ± 0.3
TTTTATTTAACTCATAATTTTTTAAAAAACAATTAT [XGTACX_negctrl_site19] | 8.34 ± 0.32
TTTTTTTTTTTTTTGGGTACATAATAATAACAAGTG [XGTACX_site1034] | 8.28 ± 0.32
CATGTAATATTAAACACACACTCATATAACTCAATA [CACACA_site4212] | 8.28 ± 0.47
CACATATACTTCTGTGCACACGAATATTTTTCTTCT [CACACA_site1408] | 9.05 ± 0.12
TTAACATTATATGAAGGTACAGAAAAAAAAAAATTA [XGTACX_site8530] | 8.35 ± 0.31
TTTCTTATAGATTTTAATCCTCTATCAAAAAAAGAA [GTGCAC_negctrl_site162] | 8.06 ± 0.49
AAATAAAAAAAATTTGCACACCTTCAAAGTAATATA [CACACA_site1583] | 8.46 ± 0.35
CATACAGTATTATACTGTACCCATACAAAAAAATAT [XGTACX_site6130] | 8.86 ± 0.45
TTTTTAATATTCTATGCATGCATCGCATATTTGGTT [TGCATGCA_site1004] | 9.47 ± 0.21
CTTATTTAAGAGTATGAACACACATCATACACATAT [CACACA_site9205] | 8.45 ± 0.43
TCTGTAAAGTAATGGACACACAATATATCCATTTAT [CACACA_site1536] | 8.35 ± 0.35
TTTCATTGGTTTATAAAATTATGAGATCTTAAAGAC [CACACA_negctrl_site1484] | 8.31 ± 0.32
GAATAATATGGACATACACACATATACATACAGATA [CACACA_site5200] | 8.64 ± 0.44
ATATATATATATATATGTACATATATTTATATTTAT [XGTACX_site6179] | 9.99 ± 0.42
GCTACGTAAAAAATATGTACATATGAAATATTTTGC [XGTACX_site5111] | 8.68 ± 0.55
TTATATATCTATAATACACACATAATAATATATTTA [CACACA_site7423] | 8.18 ± 0.36
AAATGAGAAGAAATACGTACATATAATAAAATAATT [XGTACX_site4439] | 8.83 ± 0.45
ATACATATATAAATACGTACATATATAATTATATAT [XGTACX_site8178] | 8.55 ± 0.3
ATGCATAAATTTTGAAGTACAAAAAAAAAAAATAAA [XGTACX_site7282] | 8.71 ± 0.26
TATATCTGTAAATGCACACATATGTGGATATACTTA [CACACA_site5013] | 8.71 ± 0.16
TGCTACATTCTATGTACACACATATACATATATATA [CACACA_site893] | 8.52 ± 0.19

Sequence | gcPBM binding intensity (ln)
TCTAATAATATATACACACACATATATATTTATATA [CACACA_site2032] | 8.31 ± 0.42
TATAAATATAAATACACACACATATAGATTATAGAT [CACACA_site6429] | 8.69 ± 0.42
GTTCATTCATTTTAATGTACAAATTTAACTTTTTCT [XGTACX_site680] | 8.47 ± 0.36
TAAGACATGATATATACACACCTTGTTTTAATTTTC [CACACA_site5282] | 8.44 ± 0.39
AGAAATTATAAATACCTACACACTTATCAAAATAAA [CACACA_site2264] | 8.43 ± 0.48
GATAAAGTAAAAATATGTACATATATATTTTAAGTT [XGTACX_site6439] | 8.56 ± 0.3
CATACACCCATACATACACACATACATACACCCATA [CACACA_site5124] | 8.67 ± 0.47
TCTTTTCAATTATCCTATATTCTTTTATTTTTAATT [GTGCAC_negctrl_site326] | 8.65 ± 0.35
ATATCTAAATATATTACACACAGATATCTTCCTATA [CACACA_site3701] | 8.71 ± 0.4
AACAAATAAAGCTATGACATGTTAAAATTGTTTCAC [XGTACX_negctrl_site67] | 8.66 ± 0.52
ATTCGTATGAGCATAACACACAATATCGATATTTCT [CACACA_site4165] | 8.67 ± 0.35
AGAGAAAAATATTTGGACAAAAATAATATAATATAT [CACACA_negctrl_site656] | 8.67 ± 0.4
ATAAAGGAATTTTATACACACAACATATAAATATAT [CACACA_site7365] | 8.53 ± 0.37
TTACGAATTACATATTGTACATATGCACAATTTTAA [XGTACX_site6802] | 8.54 ± 0.28
AATTAAAATACAAATGTATGCATGTCTCATATAGAA [TGCATGCA_site822] | 8.41 ± 0.36
TACATAATTTAAAATTTTATAAGTTGTAATTCGTTT [XGTACX_negctrl_site308] | 8.21 ± 0.49
TATTTATAAAAAGATTGTACATTTTTTATTATTGTA [XGTACX_site6016] | 8.19 ± 0.36
ATAAAACAACAAAGAAAATGAAAAAGTAAAAACATA [CACACA_negctrl_site596] | 8.89 ± 0.45
AGTGCATACATGAATTGTACTTTAAAATAAATTCTA [XGTACX_site8156] | 8.53
TATACAAAATATTTTACACACACATATATATACATA [CACACA_site2616] | 8.81 ± 0.71
CATTATTTATTTTAATGTACTTATTTTTAAATTGGT [XGTACX_site8038] | 8.62 ± 0.45
AAAAAAAAAAAAAAAACACACATATATCTATAATAT [CACACA_site6665] | 8.46 ± 0.26

Sequence | gcPBM binding intensity (ln)
TCCTATAATAACGTCACACATTAAATTTAATAAATT [CACACA_site4506] | 8.57 ± 0.37
TTATTTACAACTTCAAATTATGTGTAATACTACTAT [CACACA_negctrl_site741] | 8.47 ± 0.4
AAATATTATGTACGCACACACATTTTTAATATATAA [CACACA_site3851] | 8.71 ± 0.23
TAAAAAAAAACTCATGCACACAATATTATGAAAAAG [CACACA_site665] | 8.77 ± 0.44
AGCACATTATTCAAAAGTACAAATAGGTATTGTATA [XGTACX_site6107] | 8.34 ± 0.28
TTTTTTTCTTTTTACATACACACAAAAAAATAAAAT [CACACA_site580] | 8.47 ± 0.39
TTGTTAATATGATAAAAGAGGAATATTCTCTTCCTA [GTGCAC_negctrl_site659] | 8.02 ± 0.38
AATATAAAAAAAAAAAAAAAAAAAAAAAAAAAGACA [CACACA_negctrl_site983] | 8.19 ± 0.45
CAATTATTGTAATGCATGCACTGAATATAAAAAGAA | 10.3 ± 0.23
TTTATATGTATTAAGTGTACACATATAATGTATTTT [XGTACX_site16] | 8.71 ± 0.014
AAATTAATGTATATGTGAAGCAAGGGATGCGGCAGA [CACACA_negctrl_site406] | 8.86 ± 0.18
ATATATATATATATATAATATATAATATATATATAT [CACACA_negctrl_site96] | 10.02 ± 0.071
TCCAATTGTTCTAGTGTGCACATAAATAAATCTCAT | 9 ± 0.31
TTCATATTCGATAAAGTGCATTAATTTTATTTATCA | 8.525 ± 0.035
AATACTTTTTTCTGTACACACTTGATTTACTATAAT [CACACA_site5544] | 8.95 ± 0.38
AAGAGTTAAAAAAATACACACATATAGATTTTTTTA [CACACA_site7018] | 8.38 ± 0.35
ATAAATAAAAAAGAAAGAAAGAAAGAAACAAACAAA [CACACA_negctrl_site1198] | 8.56 ± 0.63
TATTAATGCAAATGTTATATGTGCATACATAAATGT [CACACA_negctrl_site790] | 8.34 ± 0.24
TATTACATACATATCTGTACATATATTAATGCACAA [XGTACX_site3315] | 8.62 ± 0.25
AAAAATATTAAAAAAGGTACACAGCATATCTCTTTT [XGTACX_site65] | 8.33 ± 0.58
AAAAAAAACAGACACACACACATTCAATATAAAACA [CACACA_site41] | 8.62 ± 0.54
ATATCTTATATTATCACACACACACCCACAAAACAG [CACACA_site1464] | 9.06 ± 0.43
